Experimental data as given in PMC4336329 (PLoS ONE, 2015).
Out of some 310,000 compounds screened, about 14,000 (4.5%) showed an effect of 50% or more. Effects have a minus sign here. The list shows a part of the results.

Target: human ether-à-go-go-related gene (hERG) potassium channel (human, UniProt Q12809)
Assay: primary screen, population patch clamp on CHO cells stably expressing hERG
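Note: peak tail current of the secondary pulse compared with the same well before compound.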

Chain of human ether-à-go-go-related gene (hERG) potassium channel (Q12809 whole entry, looked up): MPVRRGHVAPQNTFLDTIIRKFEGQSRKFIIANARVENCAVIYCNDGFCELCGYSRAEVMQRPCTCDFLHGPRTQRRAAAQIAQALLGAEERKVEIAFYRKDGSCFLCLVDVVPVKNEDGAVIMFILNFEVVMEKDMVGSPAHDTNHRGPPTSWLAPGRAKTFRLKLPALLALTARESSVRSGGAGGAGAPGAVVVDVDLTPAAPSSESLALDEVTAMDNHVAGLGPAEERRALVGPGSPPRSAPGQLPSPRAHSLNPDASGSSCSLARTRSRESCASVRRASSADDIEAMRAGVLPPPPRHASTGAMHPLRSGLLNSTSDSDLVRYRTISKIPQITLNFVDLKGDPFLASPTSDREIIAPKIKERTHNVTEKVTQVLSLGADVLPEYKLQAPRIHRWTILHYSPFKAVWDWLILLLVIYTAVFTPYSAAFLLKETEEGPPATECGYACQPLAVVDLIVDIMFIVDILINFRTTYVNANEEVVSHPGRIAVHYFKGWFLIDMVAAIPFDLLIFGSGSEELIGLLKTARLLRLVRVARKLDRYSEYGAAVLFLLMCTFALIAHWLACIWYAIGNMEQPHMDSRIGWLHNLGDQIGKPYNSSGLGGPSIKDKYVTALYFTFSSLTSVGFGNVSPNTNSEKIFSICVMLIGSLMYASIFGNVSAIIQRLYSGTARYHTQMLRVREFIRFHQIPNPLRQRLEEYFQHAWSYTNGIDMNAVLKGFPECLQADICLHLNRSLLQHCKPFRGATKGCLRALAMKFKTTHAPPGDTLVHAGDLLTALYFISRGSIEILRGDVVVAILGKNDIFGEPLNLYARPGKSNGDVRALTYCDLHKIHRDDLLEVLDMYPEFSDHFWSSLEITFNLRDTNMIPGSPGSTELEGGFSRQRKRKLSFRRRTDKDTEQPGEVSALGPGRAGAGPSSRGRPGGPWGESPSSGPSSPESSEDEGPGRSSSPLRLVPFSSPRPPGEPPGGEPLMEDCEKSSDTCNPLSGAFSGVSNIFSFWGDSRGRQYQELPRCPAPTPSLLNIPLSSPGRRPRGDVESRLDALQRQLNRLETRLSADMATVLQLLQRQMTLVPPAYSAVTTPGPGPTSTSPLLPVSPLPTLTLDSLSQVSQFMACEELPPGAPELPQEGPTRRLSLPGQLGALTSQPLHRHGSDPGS

| SMILES | hERG current change (%, negative = inhibition) at 10uM |
| --- | --- |
| COc1ccc(C(=O)Cn2c3ccccc3n3nc(CCC(=O)O)c(=O)nc23)cc1OC | 3.71% |
| COc1ccc(CNCc2ccc3ccccc3c2)c(OC)c1.O=C(O)C(=O)O | -68.3% |
| COc1ccc(C2CC(c3ccccc3)=NN2C(=O)COC(=O)c2cnc(Cl)c(Cl)c2)cc1 (centres unmarked) | -1.68% |
| COc1ccc(NC(=O)c2cc3ccccc3[nH]2)cc1 | 15.4% |
| CCC1CCCCN1C(=O)c1cc(COc2ccc3ncccc3c2)on1 (centres unmarked) | 0.129% |
| COC(=O)C1=C(c2ccc(OC)c(OC)c2)C[C@@H]2CC[C@H]1N2C(=O)NC1CC1 | 14.9% |
| CCOC(=O)c1cc(-c2cc(OC)c(OC)c(OC)c2)nc2c1c(=O)[nH]c(=O)n2Cc1ccccc1 | 1.34% |
| COc1ccc(CCNC(=O)CS(=O)(=O)Cc2nc(-c3ccc(C)cc3)oc2C)cc1OC | 2.05% |
| CC(O)c1ccc(Oc2cnccn2)cc1 (centres unmarked) | 22.3% |
| Cn1cnnc1SCC(=O)NN1C(=O)NC(C)(c2ccccc2)C1=O (centres unmarked) | -0.165% |
| C=C(c1ccc(OCCO)cc1)c1ccc(OCCO)cc1 | 21.2% |
| COc1cc(/C=C/C2=NC(=O)C(C)(C)O2)ccc1O | 10.7% |
| O=C(Cc1ccccn1)c1ccc(O)cc1O | 21.5% |
| Cc1cccc(NC(=O)c2cccc(NC3=NC4CS(=O)(=O)CC4S3)c2)c1 (centres unmarked) | 8.5% |
| COc1ccccc1CNC(=O)C(=O)Nc1nccs1 | 14.1% |
| COc1ccc(CNc2cc([N+](=O)[O-])ccc2OC)cc1 | -1.02% |
| COc1ccc(C(C)=O)c(Oc2ccc(S(=O)(=O)N3CCOCC3)cn2)c1 | -7.05% |
| O=C(COC(=O)c1ccccc1Cl)NC(=O)NCc1ccccc1 | -0.542% |
| COC(=O)c1[nH]c2cc(OC)ccc2c1NC(=O)CCN1CCSCC1 | 7.01% |
| O=C(CNC(=O)C12CC3CC(CC(C3)C1)C2)OCc1ccc(F)cc1Cl | -6.69% |
| O=C(COc1cccc(C(F)(F)F)c1)Nc1ccc2[nH]ncc2c1 | 1.33% |
| COc1ccc(C2/C=C\CN(C(=O)NC(C)C)CC(=O)N2Cc2ccc(F)cc2)cc1 (centres unmarked) | -2.92% |
| Cc1ccc(-n2nc3c(=O)n(CC(=O)NC4CCCCC4)nc(C)c3c2C)cc1 | 3.61% |
| CCc1ccccc1NC(=O)Cn1nnc(-c2cccnc2)n1 | 5.3% |
| CCS(=O)(=O)N1CCC(C(=O)Nc2cccc(F)c2)CC1 | -6.51% |
| CN(CC(=O)Nc1ccc(N2CCOCC2)cc1)CC(=O)Nc1ccc(Cl)cc1[N+](=O)[O-] | -40.9% |
| CC(C)N(CCNC(=O)C1CCN(S(=O)(=O)N2CCOCC2)CC1)Cc1ccccc1 | 1.64% |

| SMILES | hERG current change (%, negative = inhibition) at 10uM |
| --- | --- |
| COc1ccc(CNC(=O)Nc2cccc(Cl)c2)cc1 | 8.75% |
| CN(C)Cc1c(O)ccc2c(-c3ccccc3)cc(=O)oc12 | -13.8% |
| CN(Cc1cnccn1)C(=O)CC1C(=O)NCCN1Cc1cccc(Oc2ccccc2)c1 (centres unmarked) | -42.6% |
| O=C(Nc1cccnc1)c1cc(-c2ccc(Cl)cc2Cl)on1 | -8.64% |
| CCc1nnc(NC(=O)CSc2nnc(-c3ccccc3O)n2-c2ccc(C)cc2)s1 | 16.6% |
| O=C(CNS(=O)(=O)c1ccc(Br)cc1)N1CCN(Cc2ccccc2)CC1 | -17.2% |
| CN(C(=O)c1ccc(N2CCCCC2)c([N+](=O)[O-])c1)C1(C)CCS(=O)(=O)C1 (centres unmarked) | -17.4% |
| CN(CC(=O)Nc1ncn[nH]1)S(=O)(=O)c1ccc(Br)cc1 | 8.78% |
| Cc1onc(-c2c(Cl)cccc2Cl)c1C(=O)ONC(=O)c1cc(C(F)(F)F)cc(C(F)(F)F)c1 | -13.7% |
| O=C(NN1C(=O)C2C3CCC(O3)C2C1=O)c1ccco1 (centres unmarked) | 6.59% |
| Cc1ccc(CN2CCN(C(=O)CCC(=O)Nc3nnc(C(C)C)s3)CC2)c(C)c1 | -19.5% |
| O=C(NNC(=O)C12CC3CC(CC(C3)C1)C2)c1ccccc1[N+](=O)[O-] | 4.75% |
| Cn1c(=O)cc(OCC(=O)NCCCN2CCN(c3cccc(Cl)c3)CC2)c2ccccc21 | -50.8% |
| COc1ccc(-c2n[nH]c(C)c2-c2cscn2)c(O)c1 | 10.5% |
| CC(C)C(=O)NNC(=O)CSc1nnc(-c2ccccc2)c(-c2ccccc2)n1 | 6.28% |
| Cc1cc(C)nc(NC(=O)c2c(C(=O)O)noc2C)n1 | 9.98% |
| COc1ccc(NC(=O)CN(C)C(=O)CCc2ccccc2)cc1 | 4.65% |
| O=c1c2cc(NC(=S)NCCCN3CCC(Cc4ccccc4)CC3)ccc2nc2n1CCCCC2 | -82.1% |
| COc1ccc(Cl)cc1Nc1nc(-c2sc(NC(=O)C(C)(C)C)nc2C)cs1 | -5.68% |
| COc1ccc(NC(=O)CN(C)C(=O)c2ccc3c(c2)S(=O)(=O)N=C2CCCCCN23)cc1 | 21.1% |
| CCc1nc(N2CCOCC2)c(C#N)c2c1COC(C)(C)C2 | 7.87% |
| CCC1Nc2ncnc(N3CCN(c4ccccc4)CC3)c2N(Cc2ccc(Br)cc2)C1=O.O=C(O)C(F)(F)F (centres unmarked) | -8.47% |
| COc1ccc(CN(C(=O)COc2ccc(C)c(C)c2)C2CCS(=O)(=O)C2)cc1OC (centres unmarked) | -25.6% |
| CCOC(=O)c1nnn(-c2nc(N3CCCC3)nc(N3CCCC3)n2)c1-c1ccccc1 | 1.72% |
| CSCCC(NS(=O)(=O)c1ccc2c(c1)oc(=O)n2C)C(=O)NCc1ccc(C)cc1 (centres unmarked) | -3.41% |
| Cc1cccn2c(=O)c(/C=N/O)c(Nc3ccccc3F)nc12 | 1.48% |
